# Source: the supplement of paper PMC8728848
# The list shows a part of the results.
# Assays:
# Assay in all cases: glycan array binding signal (z-score within array); higher = stronger binding
# Conditions in all cases: glycan notation: IUPAC condensed, linker removed
# [1] = biological target: GlcNAc(b1-2)[GlcNAc(b1-4)]Man(a1-3)[GlcNAc(b1-4)][GlcNAc(b1-2)Man(a1-6)]Man(b1-4)GlcNAc(b1-4)GlcNAc
# Outline: (§1)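 From the Consortium for Functional Glycomics database, 3228 arrays were curated, keeping only those whose protein sequence was available. Binding is given as a within-array Z-score averaged across arrays sharing a protein sequence and across linkers. Negative Z-scores can be read as non-binding.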
# [2] = biological target: GlcNAc(b1-2)[GlcNAc(b1-4)]Man(a1-3)[GlcNAc(b1-4)][GlcNAc(b1-2)[GlcNAc(b1-6)]Man(a1-6)]Man(b1-4)GlcNAc(b1-4)GlcNAc
# Outline: as §1
# [3] = biological target: GlcNAc(b1-2)[GlcNAc(b1-4)]Man(a1-3)[GlcNAc(b1-4)][GlcNAc(b1-2)[GlcNAc(b1-6)]Man(a1-6)]Man(b1-4)GlcNAc(b1-4)[Fuc(a1-6)]GlcNAc
# Outline: as §1
# [4] = biological target: GlcNAc(b1-2)[GlcNAc(b1-6)]Man(a1-6)[GlcNAc(b1-2)Man(a1-3)]Man(b1-4)GlcNAc(b1-4)GlcNAc
# Outline: as §1
# [5] = biological target: GlcNAc(b1-2)[GlcNAc(b1-6)]Man(a1-6)[GlcNAc(b1-2)Man(a1-3)]Man(b1-4)GlcNAc(b1-4)[Fuc(a1-6)]GlcNAc
# Outline: as §1
# [6] = biological target: GlcNAc(b1-2)[GlcNAc(b1-6)]Man(a1-6)[GlcNAc(b1-2)Man(a1-3)][GlcNAc(b1-4)]Man(b1-4)GlcNAc(b1-4)GlcNAc
# Outline: as §1
# [7] = biological target: GlcNAc(b1-3)Gal
# Outline: as §1
# [8] = biological target: GlcNAc(b1-3)Gal(b1-3)GalNAc
# Outline: as §1
# [9] = biological target: GlcNAc(b1-3)Gal(b1-4)Glc
# Outline: as §1
# [10] = biological target: GlcNAc(b1-3)Gal(b1-4)GlcNAc
# Outline: as §1
# [11] = biological target: GlcNAc(b1-3)Gal(b1-4)GlcNAc(b1-3)Gal(b1-4)GlcNAc
# Outline: as §1
# [12] = biological target: GlcNAc(b1-3)GalNAc
# Outline: as §1
# [13] = biological target: GlcNAc(b1-3)Man
# Outline: as §1
# [14] = biological target: GlcNAc(b1-3)[GlcNAc(b1-4)][GlcNAc(b1-6)]GlcNAc
# Outline: as §1
# [15] = biological target: GlcNAc(b1-3)[GlcNAc(b1-6)]Gal(b1-4)GlcNAc
# Outline: as §1
# [16] = biological target: GlcNAc(b1-3)[GlcNAc(b1-6)]GalNAc
# Outline: as §1
# [17] = biological target: GlcNAc(b1-4)Gal(b1-4)GlcNAc
# Outline: as §1
# [18] = biological target: GlcNAc(b1-4)GlcNAc
# Outline: as §1
# [19] = biological target: GlcNAc(b1-4)GlcNAc(b1-4)GlcNAc
# Outline: as §1
# [20] = biological target: GlcNAc(b1-4)GlcNAc(b1-4)GlcNAc(b1-4)GlcNAc(b1-4)GlcNAc
# Outline: as §1
# [21] = biological target: GlcNAc(b1-4)GlcNAc(b1-4)GlcNAc(b1-4)GlcNAc(b1-4)GlcNAc(b1-4)GlcNAc
# Outline: as §1
# [22] = biological target: GlcNAc(b1-4)[GlcNAc(b1-6)]GalNAc
# Outline: as §1
# [23] = biological target: GlcNAc(b1-6)Gal(b1-4)GlcNAc
# Outline: as §1
# [24] = biological target: GlcNAc(b1-6)GalNAc
# Outline: as §1
# [25] = biological target: GlcNAc3Prop(b1-4)GlcNAc
# Outline: as §1
# [26] = biological target: GlcNAc6S(b1-3)Gal(b1-4)GlcNAc
# Outline: as §1
# [27] = biological target: Kdn(a2-3)Gal(b1-3)GalNAc
# Outline: as §1
# [28] = biological target: Kdn(a2-3)Gal(b1-3)GlcNAc
# Outline: as §1
# [29] = biological target: Kdn(a2-3)Gal(b1-4)Glc
# Outline: as §1
# [30] = biological target: Kdn(a2-3)Gal(b1-4)GlcNAc
# Outline: as §1
# [31] = biological target: Kdn(a2-3)Gal(b1-4)[Fuc(a1-3)]GlcNAc
# Outline: as §1
# [32] = biological target: Kdn(a2-6)Gal(b1-4)GlcNAc
# Outline: as §1
# [33] = biological target: Man(a1-2)Man(a1-2)Man(a1-3)Man
# Outline: as §1
# [34] = biological target: Man(a1-2)Man(a1-2)Man(a1-6)[Man(a1-3)]Man
# Outline: as §1
# [35] = biological target: Man(a1-2)Man(a1-3)Man
# Outline: as §1
# [36] = biological target: Man(a1-2)Man(a1-3)[Man(a1-2)Man(a1-6)]Man
# Outline: as §1
# [37] = biological target: Man(a1-2)Man(a1-3)[Man(a1-2)Man(a1-6)]Man(a1-6)[Man(a1-2)Man(a1-2)Man(a1-3)]Man
# Outline: as §1
# [38] = biological target: Man(a1-2)Man(a1-3)[Man(a1-2)Man(a1-6)]Man(a1-6)[Man(a1-2)Man(a1-2)Man(a1-3)]Man(b1-4)GlcNAc(b1-4)GlcNAc
# Outline: as §1
binder,measurement,setting,value
"Calsepa (Calystegia sepium), P93114 (protein) MAVPMDTISGPWGNNGGNFWSFRPVNKINQIVISYGGGGNNPIALTFSSTKADGSKDTITVGGGGPDSITGTEMVNIGTDEYLTGISGTFGIYLDNNVLRSITFTTNLKAHGPYGQKVGTPFSSANVVGNEIVGFLGRSGYYVDAIGTYNRHK",glycan array binding signal (z-score),[1],-0.258
same,glycan array binding signal (z-score),[2],-0.222
same,glycan array binding signal (z-score),[3],-0.271
same,glycan array binding signal (z-score),[4],1.41
same,glycan array binding signal (z-score),[5],-0.153
same,glycan array binding signal (z-score),[6],5.82
same,glycan array binding signal (z-score),[7],-0.248
same,glycan array binding signal (z-score),[8],-0.249
same,glycan array binding signal (z-score),[9],-0.243
same,glycan array binding signal (z-score),[10],-0.244
same,glycan array binding signal (z-score),[11],-0.255
same,glycan array binding signal (z-score),[12],-0.254
same,glycan array binding signal (z-score),[13],-0.255
same,glycan array binding signal (z-score),[14],-0.241
same,glycan array binding signal (z-score),[15],-0.254
same,glycan array binding signal (z-score),[16],-0.257
same,glycan array binding signal (z-score),[17],-0.244
same,glycan array binding signal (z-score),[18],-0.251
same,glycan array binding signal (z-score),[19],-0.243
same,glycan array binding signal (z-score),[20],-0.25
same,glycan array binding signal (z-score),[21],-0.247
same,glycan array binding signal (z-score),[22],-0.255
same,glycan array binding signal (z-score),[23],-0.248
same,glycan array binding signal (z-score),[24],-0.256
same,glycan array binding signal (z-score),[25],-0.246
same,glycan array binding signal (z-score),[26],-0.246
same,glycan array binding signal (z-score),[27],-0.123
same,glycan array binding signal (z-score),[28],-0.251
same,glycan array binding signal (z-score),[29],-0.249
same,glycan array binding signal (z-score),[30],-0.25
same,glycan array binding signal (z-score),[31],-0.237
same,glycan array binding signal (z-score),[32],-0.252
same,glycan array binding signal (z-score),[33],-0.252
same,glycan array binding signal (z-score),[34],-0.252
same,glycan array binding signal (z-score),[35],-0.248
same,glycan array binding signal (z-score),[36],-0.251
same,glycan array binding signal (z-score),[37],-0.254
same,glycan array binding signal (z-score),[38],-0.208
